Consider 50 compounds from publication PMC6919601, “Identification of Plasmodium dipeptidyl aminopeptidase allosteric inhibitors by high throughput screening” (PLoS ONE, 2019).

Among all 110,000 compounds or so, about 230 (0.21%) showed an effect of 50% or more. The list shows a part of the results.
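Note: 30 min substrate incubation versus DMSO and 10 µM JCP410 controls.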

In this test the target is DPAP1 (Plasmodium falciparum, UniProt Q8IIJ9). Nature of the test: primary screen, percent inhibition; read by cleavage of a fluorogenic dipeptide substrate; higher = more effect of the substance. Further details: species or system P. falciparum D10 trophozoite lysates; single well.
DPAP1, sequence (Q8IIJ9 whole entry, looked up): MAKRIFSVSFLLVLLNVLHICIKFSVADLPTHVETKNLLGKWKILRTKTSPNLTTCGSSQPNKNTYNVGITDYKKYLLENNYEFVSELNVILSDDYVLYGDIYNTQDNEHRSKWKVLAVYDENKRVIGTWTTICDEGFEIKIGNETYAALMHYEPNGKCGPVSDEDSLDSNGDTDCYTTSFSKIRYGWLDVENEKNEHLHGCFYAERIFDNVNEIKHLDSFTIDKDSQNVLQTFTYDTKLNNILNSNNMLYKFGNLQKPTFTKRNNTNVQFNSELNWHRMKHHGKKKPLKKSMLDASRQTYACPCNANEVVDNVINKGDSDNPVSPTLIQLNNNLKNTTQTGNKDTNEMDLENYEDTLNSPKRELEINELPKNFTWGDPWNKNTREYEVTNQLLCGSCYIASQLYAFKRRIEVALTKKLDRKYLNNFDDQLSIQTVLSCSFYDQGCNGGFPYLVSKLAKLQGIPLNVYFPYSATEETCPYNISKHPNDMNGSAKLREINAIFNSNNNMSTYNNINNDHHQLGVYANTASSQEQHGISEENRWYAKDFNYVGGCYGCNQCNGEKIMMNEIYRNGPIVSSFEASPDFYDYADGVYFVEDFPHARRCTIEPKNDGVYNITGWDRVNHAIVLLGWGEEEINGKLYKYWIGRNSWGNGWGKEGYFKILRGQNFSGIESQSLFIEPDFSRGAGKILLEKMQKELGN
Take `S=C1NCC(c2ccccc2)Oc2ccccc21` (centres unmarked): the “% Inhibition @ 10 uM” value was determined as 3.81%.
Then `Cc1ccc(C(=O)c2cnc3cc4c(cc3c2N2CCC(C(N)=O)CC2)OCCO4)cc1C`, with -0.563%.
Then `O=C(O)c1ccc(/C=C2/NC(=O)N(c3ccccc3)C2=O)cc1`, with -2.32%; and `CCCCOc1ccc(CSCCN)cc1`, with 0.827%; and `Fc1ccc(-c2nnn(Cc3ccc(Cl)c(Cl)c3)n2)cc1`, with 3.04%.
For `COc1ccc(-n2nc3c(c2NC(=O)c2ccc(Cl)cc2Cl)CS(=O)(=O)C3)cc1` the value was 5.35%; for `N#Cc1c(N)n(-c2cccc3ccccc23)c2nc3ccccc3nc12`, 17.2%; for `COc1ccc(C2Nc3ccc4ccccc4c3C3=C2C(=O)CC(C)(C)C3)c(OC)c1` (centres unmarked), 6.08%.
Regarding `CNC(=O)/C(C#N)=C/c1c(Oc2ccc(Br)cc2)nc2c(C)cccn2c1=O`, the “% Inhibition @ 10 uM” value turned out to be 5.21%.
Consider `COc1ccc2cc3cc(C(=O)N4CCCC4)sc3nc2c1`, for which the “% Inhibition @ 10 uM” value is given as 0.675%.
Then `COc1ccc(NC(=O)c2cc(-c3ccc(C)o3)nc3ccccc23)cc1`, with -0.512%; and `Cc1ccc(S(=O)(=O)NCc2ccc(C(=O)N3CCCC3)cc2)cc1`, with -8.34%; and `O=C(NCCc1ccccc1)c1cc(-c2cccnc2)on1`, with 0.0221%.
For `Cc1nc(NC2CCCCC2)c2c3c(sc2n1)CCCC3` the value was 0.00784%.
Then `CCc1ccc(N2CC(C(=O)Nc3cc(Cl)ccc3C)CC2=O)cc1` (centres unmarked), with -4.22%.
Regarding `C=CCNC(=O)CN(Cc1c(Cl)cccc1Cl)S(=O)(=O)c1ccc(Cl)cc1`, the “% Inhibition @ 10 uM” value came out at 1.17%.
On to `Oc1nc2cc3ccccc3cc2nc1C(F)(F)F`, for which the “% Inhibition @ 10 uM” value is listed as -4.73%.
Turning to `O=C(/C=C/c1ccc(Cl)cc1Cl)NCC1CCCO1` (centres unmarked), the “% Inhibition @ 10 uM” value is given as -6.7%.
On to `COc1ccc(CCNS(=O)(=O)c2ccc(CN3C(=O)c4cccnc4C3=O)cc2)cc1OC`, for which the “% Inhibition @ 10 uM” value was -5%.
Then `CCCCSCCCNC(=O)C1CCC(CNS(=O)(=O)c2ccc(C)cc2)CC1` (centres unmarked), with 5.47%.
Then `C=CCN1C(=O)N/C(=C/c2ccc(-c3ccc(C(=O)O)cc3C)o2)C1=O`, with -10.2%.
Then `Fc1ccc(N2CCN(Cc3ccc4ccccc4c3)CC2)cc1`, with -4.5%.
With `Nc1cc(N2CCNCC2)ccc1[N+](=O)[O-]`, the “% Inhibition @ 10 uM” value amounted to 0.035%.
For `CN1C(=O)C(=CNC(Cc2c[nH]c3ccccc23)C(=O)O)C(=O)N(C)C1=O` (centres unmarked), the “% Inhibition @ 10 uM” value is recorded as -8.71%.
With `CCC(=O)n1c(=O)sc2cc([N+](=O)[O-])ccc21`, the “% Inhibition @ 10 uM” value is recorded as -5.34%.
`CCOC(=O)N1CCN(C(=O)Cn2ncc3ccc(Cl)cc32)CC1`: the “% Inhibition @ 10 uM” value is -1.11%.
For `N#Cc1c(C(F)(F)F)cc(-c2cccs2)nc1SCC(=O)Nc1ccc(C(N)=O)cc1` the value was -7.55%; for `N#Cc1c(NC(=O)CSc2nc(=O)cc(N)n2CCc2ccccc2)sc2c1CCCC2`, -1.85%.
On to `CC(=O)c1cnc2nc(C(F)(F)F)nn2c1C`, for which the “% Inhibition @ 10 uM” value is reported as 3.36%.
For `Cc1ccc(C2CC(C(F)(F)F)n3ncc(C(=O)NCc4cn(C)nc4C)c3N2)cc1` (centres unmarked) the value was 4.49%; for `Cc1ccc2nc3c(cc(C(=O)NC4CCCC4)c(=N)n3CC3CCCO3)c(=O)n2c1` (centres unmarked), -5.14%; for `Cc1cccn2c(=O)c(/C=C(\C#N)C(=O)NCCc3ccccc3)c(Oc3ccc(Cl)cc3)nc12`, -3.23%.
For `OC1CCCN(Cc2cccc(C(F)(F)F)c2)C1` (centres unmarked) the value was 3%.
Then `CCc1ccccc1NC(=O)c1cnn(C)c1C`, with -0.63%.
As for `CC(C)CC(C(=O)NCC#N)c1cccc(-c2cccc(F)c2)c1` (centres unmarked), the “% Inhibition @ 10 uM” value came to 0.173%.
For `COc1ccc(CN2CCN(C(=O)Cn3nc(C)n4cccc4c3=O)CC2)c(OC)c1OC` the value was -7.34%; for `Cc1ccc(-c2cc(C(=O)NCc3ccccn3)c3ccccc3n2)o1`, -1.08%; for `CCOc1cc(C)c(Cl)cc1S(=O)(=O)Nc1ccccn1`, -1.72%.
Regarding `CCc1ccc(CNC(=O)Cn2ccc3cc(S(=O)(=O)N4CCCC4)ccc32)cc1`, the “% Inhibition @ 10 uM” value was -1.08%.
Then `N#CCNC(=O)C(Cc1cccc(Cl)c1)NC(=O)OCc1ccccc1` (centres unmarked), with -5.21%.
For the compound `Cc1cc(C)n(C(=O)c2cc(F)c(F)cc2Cl)n1`, the “% Inhibition @ 10 uM” value was -1.8%.
Then `C=CCc1ccc(OCC(O)CO)c(OC)c1` (centres unmarked), with 0.132%.
For `COc1ccc(Cl)cc1-c1nnc(S)n1C` the value was -1.33%.
Take `CC(C)/C(=N\NC(N)=S)c1ccccc1`: the “% Inhibition @ 10 uM” value is 1.25%.
For the compound `O=C(Nc1c(C(=O)O)oc2ccccc12)c1ccccc1`, the “% Inhibition @ 10 uM” value is reported as 4.08%.
For `CCCn1c2ccccc2c2cnn(CC(=O)Nc3cc(-c4ccccc4OCC)no3)c(=O)c21` the value was 2.36%.
Consider `CC(=O)c1cc(-c2ccccc2)n(CC(=O)NC(C)c2ccccc2)c1C` (centres unmarked), for which the “% Inhibition @ 10 uM” value is 3.07%.
On to `COc1cc(/C=C2\N=C(c3cc(F)c(F)cc3Cl)OC2=O)cc(OC)c1OC`, for which the “% Inhibition @ 10 uM” value was found to be 1.25%.
For `COc1ccccc1OCCSc1nnnn1C1CCCCC1` the value was -1.48%.
For `CCSC1=C(C#N)C2(CCN(C)CC2)C(C#N)C(=O)N1` (centres unmarked) the value was -1.6%.
